# Reference: PubChem BioAssay AID1347120 (National Center for Advancing Translational Sciences (NCATS), 2019)
# About 930 (0.24%) of roughly 390,000 compounds were called active. Inconclusive means that the source gave no clear call. Such entries were picked first, then a sample of the others. The call rests on the fitted dose curve; in most records, active means well fitted activation curve with a large enough effect; inconclusive means small, poorly fitted or top-dose-only effect; inactive means no such curve, though single readings can be large or run the other way. Potencies beside an inconclusive call are fits to weak or partial responses and may not hold up.
# Experiment: qHTS for Suppressors of FUS Proteinopathy: Primary screen using FUS-linked yeast assay; further: nearly all actives have a fitted effect of over 55% in size;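 on growth rescue (activation): plate controls were DMSO vehicle for no effect and reference control for full effect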
# Details: S. cerevisiae FUS-expressing, OD600, 24 h; Potency: growth rescue; growth rescue (activation): at 76.6 µM (top of the series)
# Outline: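 Compound concentration series was pinned onto galactose-induced FUS-expressing yeast seeded at OD 0.005. Plates sat 24hr at 30C; absorbance at 600 nm gave growth. DMSO served as background control.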
# Potency means the concentration at half of the fitted maximal effect; tags describe the fitted curve by direction and shape.
SMILES,growth rescue (activation),Potency
COc1cc(OC)c(OC)cc1/C=C1\CCC/C(=C\c2cc(OC)c(OC)cc2OC)C1=O,inactive: 18.6%,–
CCOC(=O)c1ccc(Nc2nc3ccccc3nc2NS(=O)(=O)c2ccc(Cl)cc2)cc1,inactive: -27.3%,–
Cc1nnc(SCC(=O)N(CC(C)C)c2c(N)n(CC(C)C)c(=O)[nH]c2=O)n1-c1ccccc1,–,"inconclusive: 20 µM [activator, single point]"
Cc1ccc(OCC(=O)N(Cc2cccc(Cl)c2)C2CCS(=O)(=O)C2)cc1C (stereo not given),–,"inconclusive: 44.7 µM [activator, single point]"
O=C1CCCC2=C1C1(CCCC1)N=C(Nc1nc3cc(Br)ccc3o1)N2,inactive: -9.79%,–
COc1ccc(CN2C(=O)C(O)(CC(=O)c3ccc4c(c3)OCO4)c3ccccc32)cc1OC (stereo not given),–,"inconclusive: 31.6 µM [activator, single point]"
Cc1cc(NS(=O)(=O)c2ccc(NC(=O)CSc3nnc(-c4ccco4)n3-c3ccc(Cl)cc3)cc2)nc(C)n1,–,"inconclusive: 15.8 µM [activator, partial curve, poor fit]"
CCOC(=O)N(C)[C@H]1C[C@H]2c3[nH]c4cccc(-c5cccc(F)c5)c4c3CCN2C(=O)[C@H]1[C@H](C)O,–,"inconclusive: 11.2 µM [activator, single point]"
CC1(NC(=O)CC(c2ccccc2)(c2ccccc2)c2ccccc2)CCN(Cc2ccc(-c3ccccc3)cc2)C1=O (stereo not given),–,"inconclusive: 15.8 µM [activator, partial curve]"
CN1C(C(=O)c2ccccc2)=C(OC(=O)c2ccc(Br)cc2)c2ccccc2S1(=O)=O,–,"inconclusive: 50.1 µM [activator, single point]"
COc1ccccc1NC(=O)c1c(NCc2ccc(OC)c(OC)c2OC)sc2c1CCCC2,–,"inconclusive: 28.2 µM [activator, single point]"
CCCn1c(SCC(=O)Nc2nnc(-c3ccccc3)s2)nnc1-c1ccccn1,–,"inconclusive: 17.8 µM [activator, single point]"
O=C(Nc1ccccc1)c1cc(S(=O)(=O)N2CCCCC2)ccc1N1CCOCC1,–,"inconclusive: 22.4 µM [activator, partial curve]"
CCOC(=O)[C@@H]1[C@H]2COc3cc(OC)ccc3[C@H]2N2C(=O)N(c3ccc(Cl)cc3)C(=O)[C@]12C,–,"inconclusive: 28.2 µM [activator, partial curve]"
COc1ccc(N(CC(=O)N/N=C/c2cccc3c2OCCO3)S(=O)(=O)c2ccc(NC(C)=O)cc2)cc1,–,"inconclusive: 50.1 µM [activator, single point]"
CCOC(=O)/C(=C\c1ccccc1)C(=O)c1cc(C(C)=O)c(Nc2ccccc2)s1,inactive: 21.7%,–
CC1=C(C(=O)Nc2ccccc2F)C(c2ccsc2)C2=C(CC(c3ccccc3)CC2=O)N1 (stereo not given),–,"inconclusive: 44.7 µM [activator, single point]"
Cc1ccc(Cc2c(-c3ccccc3)nc3c4ccccc4ccn23)cc1,–,"inconclusive: 25.1 µM [activator, partial curve, poor fit]"
C=CC[C@H](CC(=O)N[C@H](CO)Cc1ccccc1)C(=O)N[C@H](COC(=O)[C@@H](CC=C)CC(=O)OC(C)(C)C)Cc1c[nH]c2ccccc12,–,active: 17.8 µM
COc1ccc(C(c2nnnn2Cc2cccs2)N2CCN(c3ccccc3F)CC2)cc1OC (stereo not given),–,"inconclusive: 50.1 µM [activator, single point]"

SMILES,growth rescue (activation),Potency
N#Cc1nc(NCC(F)F)nc(Nc2cc(F)cc(F)c2)n1,inactive: -15.3%,–
N#CCSc1nn(-c2ccc(F)cc2)c(=S)s1,–,"inconclusive: 39.8 µM [activator, partial curve, poor fit]"
Cc1cccc(N(C)S(=O)(=O)c2nnc(NC(=O)C(C)(C)C)s2)c1,inactive: -1.77%,–
COc1ccc(N(CC(=O)Nc2ccccc2C(N)=O)S(=O)(=O)c2ccc(C)c([N+](=O)[O-])c2)cc1,–,"inconclusive: 28.2 µM [activator, single point]"
CC(C)C[C@H](NC(=O)c1nc[nH]c1C(=O)NCc1ccccc1)C(=O)OC(C)(C)C,–,"inconclusive: 35.5 µM [activator, single point]"
O=C(COC(=O)c1ccccc1)Nc1ccccc1N1CCOCC1,–,"inconclusive: 44.7 µM [activator, partial curve, poor fit]"
COc1cccc(C2CC(c3ccccc3)n3ncnc3N2)c1 (stereo not given),inactive: -16.6%,–
Cc1ccnc(OC(C(=O)O)C(OCCc2ccccc2)(c2ccccc2)c2ccccc2)n1 (stereo not given),–,"inconclusive: 35.5 µM [activator, single point]"
CCOC(=O)c1cc(-c2ccc(F)cc2)n(CCC(=O)Nc2nc3cc(C)c(C)cc3s2)c1C,inactive: -7.72%,–
CCOP(=O)(c1ccc(N(C)C)cc1)C(O)c1ccccc1 (stereo not given),–,"inconclusive: 5.01 µM [activator, partial curve, poor fit]"
COc1cc(C(=O)N(C)CCOc2ccccc2)ccc1OCC(=O)Nc1cccc(C(F)(F)F)c1,–,"inconclusive: 31.6 µM [activator, single point]"
O=C(NC(=S)Nc1ccccc1N1CCCCC1)c1ccco1,inactive: 12%,–
COc1ccc2c(c1)c(=O)c(C(=O)c1ccc(F)cc1)cn2CC(=O)Nc1ccc2c(c1)OCCO2,inactive: -20%,–
O=C(COC(=O)c1cnccn1)Nc1ccc(Cl)cc1C(F)(F)F,–,"inconclusive: 39.8 µM [activator, partial curve, poor fit]"
CCS(=O)(=O)N1Cc2ccccc2CC1C(=O)N1CCN(c2ccccc2)CC1 (stereo not given),–,"inconclusive: 22.4 µM [activator, partial curve, poor fit]"
C=CCn1c(SCC(=O)NCC2CCCO2)nc2c([nH]c3ccccc32)c1=O (stereo not given),inactive: 20.7%,–
O=C(CCc1ccccc1)N[C@H]1[C@H](OC(=O)c2cnccn2)CCC[C@]12C(=O)N(Cc1ccccc1)c1ccccc12,inactive: 0.817%,–
C[C@@H]1CCC[C@@]2(O[C@@H](CCO)C[C@H](O)[C@H]2O)O1,inactive: -18%,–
CC1(C)CC(N2CCOCC2)=CC(=[N+]2CCOCC2)C1,inactive: -4.91%,–
O=C(O)CCCNC(=O)CCCNC(=O)C(c1ccccc1)c1ccccc1,–,"inconclusive: 7.94 µM [activator, full curve, poor fit]"
